This is an account of results in patent US20250361297A1 (ADAPTAM THERAPEUTICS S L, published 2025).

Read-outs that look alike come from different tables or passages of the source.

The target of assay [1] is T1, human Siglec-15, full length, expressed on cells (human, UniProt Q6ZMC9 20-328).
T1 construct: also called hS15; MOLM-13 Siglec-15 expressing cells
T1 sequence: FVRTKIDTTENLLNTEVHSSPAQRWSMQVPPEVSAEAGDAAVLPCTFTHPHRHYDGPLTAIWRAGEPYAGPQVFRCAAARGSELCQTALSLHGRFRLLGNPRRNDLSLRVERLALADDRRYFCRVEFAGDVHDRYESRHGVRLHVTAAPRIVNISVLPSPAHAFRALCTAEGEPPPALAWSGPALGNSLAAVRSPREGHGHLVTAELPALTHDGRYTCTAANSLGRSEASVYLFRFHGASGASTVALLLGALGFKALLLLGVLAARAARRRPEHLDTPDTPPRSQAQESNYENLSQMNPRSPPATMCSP
Nature of the assay: flow cytometry, THP-1 cells overexpressing human Siglec-15, ADC titrated, anti-human IgG-PE, gMFI. On the technique in general: Flow cytometry measures light scatter and fluorescence of single cells or particles in a stream.

Assay [2] deals with T1, human Siglec-15, full length, expressed …. The assay is described as above. The source holds these as a separate data set.

B1: ZLA-1243-A01-MMAE (other)
VH: [sequence of about 100 residues not given]DNEWTPGSFFDYWGQGTLVTVSS
VL: QSALTQPASVSGSPGQSITISCTGTSSDVGGYNYVSWYQQHPGKAPKLMIYDVSNRPSGVSNRFSGSKSGNTASLTISGLQAEDEADYYCSSYTSSSTRVFGGGTKVTVL
modifications: vc-MMAE payload linker conjugated to the antibody; residue not stated
As to B1, the binding result in assay [1] is “binds”.

B2: ZLA-1243-A01-Exatecan (other)
VH: [sequence of about 100 residues not given]DNEWTPGSFFDYWGQGTLVTVSS
VL: QSALTQPASVSGSPGQSITISCTGTSSDVGGYNYVSWYQQHPGKAPKLMIYDVSNRPSGVSNRFSGSKSGNTASLTISGLQAEDEADYYCSSYTSSSTRVFGGGTKVTVL
modifications: Antibody-drug conjugate: exatecan payload joined through an MC-GGFG linker. The attachment residues are not stated and the letters cannot carry the payload.
notes: member of group m29
Take B2: the binding result in assay [2] is given as “binds”.
